Experimental data taken from article PMC8255383.
These are yes or no findings as the source states them, for the method shown. For some of these results: In cells and extracts the contact can be indirect. Some results given as binding are weak or reduced against the parent protein; the word gives no strength. For some of these results: Where a sequence is shown, tags or fusion partners need not be part of it.

Amino acid sequences for entries named in this document (tags omitted). A change or cut given only in a name is not applied to a line headed by its entry.
UniProt Q96EB6: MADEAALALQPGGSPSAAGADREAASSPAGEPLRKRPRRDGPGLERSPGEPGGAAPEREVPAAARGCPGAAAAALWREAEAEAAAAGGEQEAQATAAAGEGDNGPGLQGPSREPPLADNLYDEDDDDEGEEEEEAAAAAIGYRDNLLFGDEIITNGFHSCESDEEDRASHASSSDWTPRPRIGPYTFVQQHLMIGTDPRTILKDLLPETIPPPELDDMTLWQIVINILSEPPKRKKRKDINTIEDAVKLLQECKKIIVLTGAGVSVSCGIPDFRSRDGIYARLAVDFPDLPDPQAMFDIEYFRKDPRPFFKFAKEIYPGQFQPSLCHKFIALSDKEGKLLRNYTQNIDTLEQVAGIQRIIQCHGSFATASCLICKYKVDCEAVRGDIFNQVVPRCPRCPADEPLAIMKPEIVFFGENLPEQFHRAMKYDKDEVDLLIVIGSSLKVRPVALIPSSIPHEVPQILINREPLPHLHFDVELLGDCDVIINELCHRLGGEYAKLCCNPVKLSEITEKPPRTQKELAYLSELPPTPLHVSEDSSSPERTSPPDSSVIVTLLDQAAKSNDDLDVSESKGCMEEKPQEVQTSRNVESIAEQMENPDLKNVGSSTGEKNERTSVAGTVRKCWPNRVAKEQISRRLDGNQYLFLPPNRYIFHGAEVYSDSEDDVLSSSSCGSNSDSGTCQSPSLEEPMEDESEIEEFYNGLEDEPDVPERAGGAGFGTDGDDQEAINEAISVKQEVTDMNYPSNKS
UniProt Q8N6T7: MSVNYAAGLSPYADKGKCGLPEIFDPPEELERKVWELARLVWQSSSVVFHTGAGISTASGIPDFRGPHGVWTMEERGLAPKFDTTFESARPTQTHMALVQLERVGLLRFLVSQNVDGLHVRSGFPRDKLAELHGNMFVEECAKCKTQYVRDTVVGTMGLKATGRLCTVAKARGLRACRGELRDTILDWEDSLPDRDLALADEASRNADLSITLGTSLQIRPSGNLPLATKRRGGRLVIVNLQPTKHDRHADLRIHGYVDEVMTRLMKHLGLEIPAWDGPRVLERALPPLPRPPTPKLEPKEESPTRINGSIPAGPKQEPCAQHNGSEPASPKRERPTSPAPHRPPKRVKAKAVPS
UniProt Q9NRC8: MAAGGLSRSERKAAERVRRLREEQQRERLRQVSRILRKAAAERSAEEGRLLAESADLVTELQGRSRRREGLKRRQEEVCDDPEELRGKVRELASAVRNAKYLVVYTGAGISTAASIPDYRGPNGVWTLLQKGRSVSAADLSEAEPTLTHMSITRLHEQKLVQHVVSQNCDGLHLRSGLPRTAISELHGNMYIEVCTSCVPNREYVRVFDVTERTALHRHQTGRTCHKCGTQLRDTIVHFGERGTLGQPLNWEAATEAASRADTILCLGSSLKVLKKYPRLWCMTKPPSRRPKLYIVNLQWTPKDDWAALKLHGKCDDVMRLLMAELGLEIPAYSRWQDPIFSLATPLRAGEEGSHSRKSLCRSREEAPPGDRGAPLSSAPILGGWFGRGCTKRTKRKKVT
UniProt P15559: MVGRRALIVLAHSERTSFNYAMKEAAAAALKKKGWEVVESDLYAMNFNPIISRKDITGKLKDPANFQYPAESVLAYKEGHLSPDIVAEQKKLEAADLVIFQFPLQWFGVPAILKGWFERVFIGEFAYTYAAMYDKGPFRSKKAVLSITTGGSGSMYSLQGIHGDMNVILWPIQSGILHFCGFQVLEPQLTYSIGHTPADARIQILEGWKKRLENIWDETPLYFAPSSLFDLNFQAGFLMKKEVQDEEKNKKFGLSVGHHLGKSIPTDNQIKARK

Tests used:
flag-SIRT1 [1] = target: flag-SIRT1 (UniProt Q96EB6); assay: co-IP; nuclear fraction of cells over expressing Flag-SIRT1 and NQO1, untreated or treated with rotenone or antimycin A for 16 h; flag immunoprecipitation
flag-SIRT1 [2] = target: flag-SIRT1 (UniProt Q96EB6); assay: co-IP; extracts of HEK293 cells co-transfected with NQO1 and flag-tagged protein; Flag beads, washed, eluted, immunoblot; also after 10 mM NAM or 50 uM Resveratrol for 16 h
flag-SIRT1 H363Y = flag-SIRT1 H363Y (UniProt Q96EB6); assay: as above
flag-SIRT2 = target: T1, flag-SIRT2 (UniProt Q8IXJ6); assay: as above
T1 sequence: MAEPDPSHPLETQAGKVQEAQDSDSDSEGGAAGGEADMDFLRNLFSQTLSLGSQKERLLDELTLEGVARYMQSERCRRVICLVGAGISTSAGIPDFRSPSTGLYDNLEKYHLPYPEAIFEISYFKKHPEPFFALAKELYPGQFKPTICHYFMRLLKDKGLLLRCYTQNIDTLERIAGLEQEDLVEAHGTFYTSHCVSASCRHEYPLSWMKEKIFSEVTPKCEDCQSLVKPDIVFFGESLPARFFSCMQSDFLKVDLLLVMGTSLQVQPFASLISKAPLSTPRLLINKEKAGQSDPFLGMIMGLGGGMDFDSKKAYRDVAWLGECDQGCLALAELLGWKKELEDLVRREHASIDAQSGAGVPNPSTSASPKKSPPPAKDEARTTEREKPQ

flag-SIRT6 = flag-SIRT6 (UniProt Q8N6T7); assay: as above
flag-SIRT7 = flag-SIRT7 (UniProt Q9NRC8); assay: as above
His-SIRT1 = His-SIRT1 (UniProt Q96EB6); assay: pull-down; recombinant purified His-SIRT1 and NQO1 incubated, precipitated with Ni-NTA beads; 50 mM Tris-HCl pH 8.0, 150 mM NaCl, 20 mM imidazole; eluted with 200 mM imidazole; both purified

| binding (flag-SIRT1 [1]) | binding (flag-SIRT1 [2]) | binding (flag-SIRT1 H363Y) | binding (flag-SIRT2) | binding (flag-SIRT6) | binding (flag-SIRT7) | binding (His-SIRT1) | Substance |
| --- | --- | --- | --- | --- | --- | --- | --- |
| binds | binds | no binding | binds weakly | binds weakly | binds weakly |  | NQO1 (NAD(P)H Dehydrogenase Quinone 1) (from UniProt P15559 1-274) (enzyme) |
|  |  |  |  |  |  | binds | NQO1 (recombinant, His-TEV removed) (from UniProt P15559 1-274) (enzyme) |
